Test results as given in PMC11602027.
These are yes or no findings as the source states them, for the method shown. For part of these data: In cells and extracts the contact can be indirect. Some binding calls cover weakened binding; strength is not graded here. For part of these data: Tags and fused reporters may be left off the sequences shown.

Assays:
[1] = target: T1, pGBK-rgf1 (S. pombe) (UniProt Q9Y7U6); assay: two-hybrid; S. cerevisiae AH109; pGBKT7 (GAL4 binding domain) and pGADT7 (GAL4 activation domain) fusions; growth on YNB plates without histidine
T1 sequence: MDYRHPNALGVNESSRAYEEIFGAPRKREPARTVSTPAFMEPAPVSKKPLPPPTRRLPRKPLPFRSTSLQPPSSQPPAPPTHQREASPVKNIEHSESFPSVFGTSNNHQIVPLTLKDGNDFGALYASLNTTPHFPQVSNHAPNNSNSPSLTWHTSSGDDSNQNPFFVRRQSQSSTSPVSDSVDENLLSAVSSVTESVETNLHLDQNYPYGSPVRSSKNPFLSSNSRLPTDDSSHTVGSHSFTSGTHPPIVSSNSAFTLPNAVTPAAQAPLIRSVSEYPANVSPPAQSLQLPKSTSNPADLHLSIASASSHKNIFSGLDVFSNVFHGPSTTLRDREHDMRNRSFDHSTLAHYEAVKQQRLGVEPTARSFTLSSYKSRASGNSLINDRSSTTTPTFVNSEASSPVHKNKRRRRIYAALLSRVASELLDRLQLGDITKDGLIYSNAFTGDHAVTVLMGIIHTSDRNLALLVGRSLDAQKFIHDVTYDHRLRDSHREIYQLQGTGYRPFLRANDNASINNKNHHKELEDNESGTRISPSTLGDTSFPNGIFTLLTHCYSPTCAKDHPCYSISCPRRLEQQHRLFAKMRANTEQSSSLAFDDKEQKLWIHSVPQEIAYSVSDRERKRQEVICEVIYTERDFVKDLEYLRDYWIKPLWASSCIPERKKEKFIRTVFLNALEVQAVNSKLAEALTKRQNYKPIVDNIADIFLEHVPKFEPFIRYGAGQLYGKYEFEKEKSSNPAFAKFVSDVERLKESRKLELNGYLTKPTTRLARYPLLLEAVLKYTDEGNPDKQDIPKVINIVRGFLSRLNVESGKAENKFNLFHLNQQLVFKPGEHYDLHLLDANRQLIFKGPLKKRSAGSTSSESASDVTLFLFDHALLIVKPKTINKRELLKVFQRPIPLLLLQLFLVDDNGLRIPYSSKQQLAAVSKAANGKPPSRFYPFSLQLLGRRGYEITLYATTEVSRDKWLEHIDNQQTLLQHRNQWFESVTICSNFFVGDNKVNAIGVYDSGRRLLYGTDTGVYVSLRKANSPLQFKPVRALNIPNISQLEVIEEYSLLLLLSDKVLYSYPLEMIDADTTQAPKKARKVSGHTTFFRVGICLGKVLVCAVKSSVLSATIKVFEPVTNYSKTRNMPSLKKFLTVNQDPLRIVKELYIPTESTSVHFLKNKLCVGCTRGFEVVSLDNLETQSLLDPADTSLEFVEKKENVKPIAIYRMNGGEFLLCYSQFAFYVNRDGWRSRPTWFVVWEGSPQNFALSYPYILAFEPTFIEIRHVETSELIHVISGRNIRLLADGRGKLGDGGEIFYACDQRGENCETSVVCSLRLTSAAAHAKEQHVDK

[2] = target: T2, GST-Tea4 (S. pombe) (UniProt O60132); assay: pull-down; 2 to 10 μg GST-tagged protein purified from E. coli and coupled to GS beads, incubated 2 h with S. pombe cell extracts (2 to 3 mg total protein; 50 mM Tris-HCl pH 7.5, 20 mM NaCl, 0.5% NP-40, 10% glycerol); blotted with anti-HA or anti-GFP; GS beads alone as control; only the target purified
T2 sequence: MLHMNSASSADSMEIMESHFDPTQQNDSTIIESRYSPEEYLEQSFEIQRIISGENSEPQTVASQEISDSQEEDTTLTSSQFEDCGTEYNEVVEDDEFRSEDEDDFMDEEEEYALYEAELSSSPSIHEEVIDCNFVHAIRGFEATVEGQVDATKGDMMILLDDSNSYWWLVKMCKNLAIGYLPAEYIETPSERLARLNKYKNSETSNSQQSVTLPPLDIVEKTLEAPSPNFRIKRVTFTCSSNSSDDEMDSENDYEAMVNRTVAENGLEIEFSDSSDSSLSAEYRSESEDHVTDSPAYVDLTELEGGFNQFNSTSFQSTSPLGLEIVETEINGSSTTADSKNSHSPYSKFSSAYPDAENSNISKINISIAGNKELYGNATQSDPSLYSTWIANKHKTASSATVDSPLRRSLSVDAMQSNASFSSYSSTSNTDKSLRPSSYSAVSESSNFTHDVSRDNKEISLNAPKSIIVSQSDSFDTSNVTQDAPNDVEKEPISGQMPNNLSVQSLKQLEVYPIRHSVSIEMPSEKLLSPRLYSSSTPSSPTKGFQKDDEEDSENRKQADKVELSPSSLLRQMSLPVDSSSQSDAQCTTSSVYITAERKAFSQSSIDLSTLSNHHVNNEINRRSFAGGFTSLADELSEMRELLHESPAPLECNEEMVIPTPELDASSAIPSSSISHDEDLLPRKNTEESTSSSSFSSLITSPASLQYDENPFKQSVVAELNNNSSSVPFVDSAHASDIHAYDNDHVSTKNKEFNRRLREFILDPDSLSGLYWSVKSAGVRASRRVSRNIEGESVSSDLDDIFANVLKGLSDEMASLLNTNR

Binder	binding [1]	binding [2]
pGAD-tea4 (protein, UniProt O60132 1-821) MLHMNSASSADSMEIMESHFDPTQQNDSTIIESRYSPEEYLEQSFEIQRIISGENSEPQTVASQEISDSQEEDTTLTSSQFEDCGTEYNEVVEDDEFRSEDEDDFMDEEEEYALYEAELSSSPSIHEEVIDCNFVHAIRGFEATVEGQVDATKGDMMILLDDSNSYWWLVKMCKNLAIGYLPAEYIETPSERLARLNKYKNSETSNSQQSVTLPPLDIVEKTLEAPSPNFRIKRVTFTCSSNSSDDEMDSENDYEAMVNRTVAENGLEIEFSDSSDSSLSAEYRSESEDHVTDSPAYVDLTELEGGFNQFNSTSFQSTSPLGLEIVETEINGSSTTADSKNSHSPYSKFSSAYPDAENSNISKINISIAGNKELYGNATQSDPSLYSTWIANKHKTASSATVDSPLRRSLSVDAMQSNASFSSYSSTSNTDKSLRPSSYSAVSESSNFTHDVSRDNKEISLNAPKSIIVSQSDSFDTSNVTQDAPNDVEKEPISGQMPNNLSVQSLKQLEVYPIRHSVSIEMPSEKLLSPRLYSSSTPSSPTKGFQKDDEEDSENRKQADKVELSPSSLLRQMSLPVDSSSQSDAQCTTSSVYITAERKAFSQSSIDLSTLSNHHVNNEINRRSFAGGFTSLADELSEMRELLHESPAPLECNEEMVIPTPELDASSAIPSSSISHDEDLLPRKNTEESTSSSSFSSLITSPASLQYDENPFKQSVVAELNNNSSSVPFVDSAHASDIHAYDNDHVSTKNKEFNRRLREFILDPDSLSGLYWSVKSAGVRASRRVSRNIEGESVSSDLDDIFANVLKGLSDEMASLLNTNR	binds	
Rgf1ΔPH-GFP (protein, UniProt Q9Y7U6) MDYRHPNALGVNESSRAYEEIFGAPRKREPARTVSTPAFMEPAPVSKKPLPPPTRRLPRKPLPFRSTSLQPPSSQPPAPPTHQREASPVKNIEHSESFPSVFGTSNNHQIVPLTLKDGNDFGALYASLNTTPHFPQVSNHAPNNSNSPSLTWHTSSGDDSNQNPFFVRRQSQSSTSPVSDSVDENLLSAVSSVTESVETNLHLDQNYPYGSPVRSSKNPFLSSNSRLPTDDSSHTVGSHSFTSGTHPPIVSSNSAFTLPNAVTPAAQAPLIRSVSEYPANVSPPAQSLQLPKSTSNPADLHLSIASASSHKNIFSGLDVFSNVFHGPSTTLRDREHDMRNRSFDHSTLAHYEAVKQQRLGVEPTARSFTLSSYKSRASGNSLINDRSSTTTPTFVNSEASSPVHKNKRRRRIYAALLSRVASELLDRLQLGDITKDGLIYSNAFTGDHAVTVLMGIIHTSDRNLALLVGRSLDAQKFIHDVTYDHRLRDSHREIYQLQGTGYRPFLRANDNASINNKNHHKELEDNESGTRISPSTLGDTSFPNGIFTLLTHCYSPTCAKDHPCYSISCPRRLEQQHRLFAKMRANTEQSSSLAFDDKEQKLWIHSVPQEIAYSVSDRERKRQEVICEVIYTERDFVKDLEYLRDYWIKPLWASSCIPERKKEKFIRTVFLNALEVQAVNSKLAEALTKRQNYKPIVDNIADIFLEHVPKFEPFIRYGAGQLYGKYEFEKEKSSNPAFAKFVSDVERLKESRKLELNGYLTKPTTRLARYPYDSGRRLLYGTDTGVYVSLRKANSPLQFKPVRALNIPNISQLEVIEEYSLLLLLSDKVLYSYPLEMIDADTTQAPKKARKVSGHTTFFRVGICLGKVLVCAVKSSVLSATIKVFEPVTNYSKTRNMPSLKKFLTVNQDPLRIVKELYIPTESTSVHFLKNKLCVGCTRGFEVVSLDNLETQSLLDPADTSLEFVEKKENVKPIAIYRMNGGEFLLCYSQFAFYVNRDGWRSRPTWFVVWEGSPQNFALSYPYILAFEPTFIEIRHVETSELIHVISGRNIRLLADGRGKLGDGGEIFYACDQRGENCETSVVCSLRLTSAAAHAKEQHVDK		binds
Rgf1-GFP (protein, UniProt Q9Y7U6 1-1334) MDYRHPNALGVNESSRAYEEIFGAPRKREPARTVSTPAFMEPAPVSKKPLPPPTRRLPRKPLPFRSTSLQPPSSQPPAPPTHQREASPVKNIEHSESFPSVFGTSNNHQIVPLTLKDGNDFGALYASLNTTPHFPQVSNHAPNNSNSPSLTWHTSSGDDSNQNPFFVRRQSQSSTSPVSDSVDENLLSAVSSVTESVETNLHLDQNYPYGSPVRSSKNPFLSSNSRLPTDDSSHTVGSHSFTSGTHPPIVSSNSAFTLPNAVTPAAQAPLIRSVSEYPANVSPPAQSLQLPKSTSNPADLHLSIASASSHKNIFSGLDVFSNVFHGPSTTLRDREHDMRNRSFDHSTLAHYEAVKQQRLGVEPTARSFTLSSYKSRASGNSLINDRSSTTTPTFVNSEASSPVHKNKRRRRIYAALLSRVASELLDRLQLGDITKDGLIYSNAFTGDHAVTVLMGIIHTSDRNLALLVGRSLDAQKFIHDVTYDHRLRDSHREIYQLQGTGYRPFLRANDNASINNKNHHKELEDNESGTRISPSTLGDTSFPNGIFTLLTHCYSPTCAKDHPCYSISCPRRLEQQHRLFAKMRANTEQSSSLAFDDKEQKLWIHSVPQEIAYSVSDRERKRQEVICEVIYTERDFVKDLEYLRDYWIKPLWASSCIPERKKEKFIRTVFLNALEVQAVNSKLAEALTKRQNYKPIVDNIADIFLEHVPKFEPFIRYGAGQLYGKYEFEKEKSSNPAFAKFVSDVERLKESRKLELNGYLTKPTTRLARYPLLLEAVLKYTDEGNPDKQDIPKVINIVRGFLSRLNVESGKAENKFNLFHLNQQLVFKPGEHYDLHLLDANRQLIFKGPLKKRSAGSTSSESASDVTLFLFDHALLIVKPKTINKRELLKVFQRPIPLLLLQLFLVDDNGLRIPYSSKQQLAAVSKAANGKPPSRFYPFSLQLLGRRGYEITLYATTEVSRDKWLEHIDNQQTLLQHRNQWFESVTICSNFFVGDNKVNAIGVYDSGRRLLYGTDTGVYVSLRKANSPLQFKPVRALNIPNISQLEVIEEYSLLLLLSDKVLYSYPLEMIDADTTQAPKKARKVSGHTTFFRVGICLGKVLVCAVKSSVLSATIKVFEPVTNYSKTRNMPSLKKFLTVNQDPLRIVKELYIPTESTSVHFLKNKLCVGCTRGFEVVSLDNLETQSLLDPADTSLEFVEKKENVKPIAIYRMNGGEFLLCYSQFAFYVNRDGWRSRPTWFVVWEGSPQNFALSYPYILAFEPTFIEIRHVETSELIHVISGRNIRLLADGRGKLGDGGEIFYACDQRGENCETSVVCSLRLTSAAAHAKEQHVDK		binds
